From paper PMC12136788 come the findings set out here.

This is one part of the list.

T1: UNK ZnF1-3 (human, UniProt Q9C0B0 31-174)
T1 sequence: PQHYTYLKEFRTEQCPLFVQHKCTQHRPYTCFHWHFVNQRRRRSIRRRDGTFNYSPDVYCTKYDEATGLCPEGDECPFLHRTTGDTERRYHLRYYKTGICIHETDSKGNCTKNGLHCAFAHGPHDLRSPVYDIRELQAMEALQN

B1: chr4:134901438:134901439:-_ENSMUSG00000028809_ENSMUST00000134854|mus_mus|FALSE|FALSE (ssRNA)
RNA: GGGAGUUCUACAGUCCGACGAUCCUUCCGACUCCCUACUGCAACUCAACCACCUUGAGUUUAAUGUUAUAUCAUUUAUCUAAAUUGCAAAAGACGAACAAGCAAUAAUGAGUACACAACCACAAAAAAAGAAAAGAUUGUUUACAACAGAGGAUUGAGCAUCA
B2: chr7:149068622:149068623:-_ENSMUSG00000025139_ENSMUST00000001950|mus_hu|mus_mus_mus_hu_False|28_88 (ssRNA)
RNA: GGGAGUUCUACAGUCCGACGAUCGUGAGGCCUCUGAGUGUGGCUUGUGCUCUGCAGUGGGUUAGAGUUGUUAAUAUCACGGAACAUACCAUCUAGAACGUUCCAGUCUGCCUGACUACCUUCAUUCCCAAUGGAGAAGAAAUCCAACAGAGGAUUGAGCAUCA
B3: 7343084_7343204_354_5pUTR_ENSMUSG00000024968_ENSMUST00000066646|mouse|control|control (ssRNA)
RNA: GGGAGUUCUACAGUCCGACGAUCCGGCCGGGGGCACGCUCGCUCCGUGCGCCCCUCGGGGCUGGUUCUCCCCCGGGGAGAGUCGGGGCGCGUUGCCCUCGGGGAGCCCCGGAGCCGCGCCGCGCGCCUGCCCACGCUGUUUGGCAACAGAGGAUUGAGCAUCA
B4: chr2:66073698:66073699:-_ENSMUSG00000034848_ENSMUST00000102718|mus_hu|motif|central (ssRNA)
RNA: GGGAGUUCUACAGUCCGACGAUCUUGCUGGAUUUCAUUUAAAAAUUCUAGCUGCUGAUCUGCAUCCUGUAAUUGCCCUUCGGUCAACUGACAUUGGAUAAAUCCAACUAGGGCAGACACACUAGUCUCAUCAAGUGUCAUGGCCAACAGAGGAUUGAGCAUCA
B5: 121709820_121709940_1114_5pUTR_ENSMUSG00000042744_ENSMUST00000119892|mouse|control|control (ssRNA)
RNA: GGGAGUUCUACAGUCCGACGAUCGUUUUCAGAGCUGGAGCCAGUGUUGCUGUCUGGUGCUGGCAGCAUGUCCUCAUAUCCCCAAGAUACUAUGUGUUUGCCCCCAAGCAAACAGGAUGGGGAUCCAGGUCCCCCUUCCAAAAGCAACAGAGGAUUGAGCAUCA
B6: 72149530_72149750_466_3pUTR_ENSMUSG00000038535_ENSMUST00000098576|mouse|control|control (ssRNA)
RNA: GGGAGUUCUACAGUCCGACGAUCUACUGGCAAGGCAGCCACAGGAUUUGAUGCUGAAUUCAGGCAGCGUUGACUUGUAGGCUUGAAUGAAGCAGUAAAACCUCGAUUGAGUAUACCAUUCUUUAUUCCUCUUGAAUGAGAGCUCAACAGAGGAUUGAGCAUCA
B7: chr19:45035288:45035289:+_ENSMUSG00000036097_ENSMUST00000096053|mus_hu|FALSE|FALSE (ssRNA)
RNA: GGGAGUUCUACAGUCCGACGAUCAUUCUCCAGGGGAAACAAAGAUCUAAAAUCAAUCCCCAUAUUGAAAAACACAGCUGCUACAUCAGACAAUGAUGGGAUCCAUGGCCAAACUGGUGAGUCACUGAAGGUAUCAUUUCUAAUCAACAGAGGAUUGAGCAUCA
B8: chr17:73195629:73195630:+_ENSMUSG00000039770_ENSMUST00000045174|mus_mus|motif|central (ssRNA)
RNA: GGGAGUUCUACAGUCCGACGAUCACGGGUACCACCGAUAUGGUCAAGAAAGAUUCUGCCCAUUUUGACAACUGAAGUUCGGAAAAGCGGCGUGCUGGGAAUCGGCGCUGCCAGCAGCUCUUCGCUCCUCAGCUGGGUCGAAGCCAACAGAGGAUUGAGCAUCA
B9: chr16:23111026:23111027:+_ENSMUSG00000022884_ENSMUST00000148085|mus_mus|FALSE|FALSE (ssRNA)
RNA: GGGAGUUCUACAGUCCGACGAUCGAUAUGCUACCCACAAAGAUCAUGAUGAUCUCCAAGCUGAGUAUUUAUUGCUGGUCUAAAUACUUAUUGCACCGAAUCUUAUGACAUAGGACACUGGACAUUAAGAAAGAGGUCCACCCCCAACAGAGGAUUGAGCAUCA
B10: chr4:1729744:1729745:+_ENSG00000013810_ENST00000313288|hu_hu|motif|central (ssRNA)
RNA: GGGAGUUCUACAGUCCGACGAUCGGACUCUGUCCUGCAAGGGUCUUCUAGGGUCUCAGAGGCGGGUGUCACUCUUCUGUCGGAGGAAUAGGAACUAAGGUUUUCCUCCACGGCUUGCUCAGGGCUGCCAGACACUUUUCCUGGCAACAGAGGAUUGAGCAUCA
B11: chr8:104442852:104442853:+_ENSG00000164934_ENST00000297579|hu_hu|FALSE|FALSE (ssRNA)
RNA: GGGAGUUCUACAGUCCGACGAUCUCUCAUAUCUAAGAUAACCUUUUUCAAAGGAGUAGCUUGCCUCAUAUCGUACAGUACUAUAUUCCUGUCAGAUGCACAACUUCCCAAGAGAAAUGUCUCAAUUGGGUUAAAUUUAACACUCAACAGAGGAUUGAGCAUCA
B12: chr11:51935959:51935960:+_ENSMUSG00000020349_ENSMUST00000020608|mus_mus|FALSE|FALSE (ssRNA)
RNA: GGGAGUUCUACAGUCCGACGAUCUUUUCUGACAGUAACAAAGAACAACGCGGGGCUGAGAUUUGAGAAGGGGAGAAACUGAGUGCAGACAAAUCAUACAAUUAAAUUAAUGGUAUCCCUGAAAGAAACACAACAAGAGGGGAGCAACAGAGGAUUGAGCAUCA
B13: chr2:204281756:204281757:+_ENSG00000138443_ENST00000261017|hu_mus|FALSE|FALSE (ssRNA)
RNA: GGGAGUUCUACAGUCCGACGAUCCUUUUCCAAGUAAGCCCUUGGCGCCCACGGUGGGUCCUCUUCAGCGUACGGAUCGCUGUACUCAACCACAGCUGCUUCCUCCUCUUCAUAAUCUUCUGGAGGAGGCGGUGGAGGGGGGGACAACAGAGGAUUGAGCAUCA
B14: chr19:16212804:16212805:+_ENSG00000167460_ENST00000300933|hu_mus|hu_hu_hu_mus_False|18_48 (ssRNA)
RNA: GGGAGUUCUACAGUCCGACGAUCAACAAUUCUGGAGUGAAGGAAAGAUGUAACAUGGAACAGCAUUAAAGCUCAGUCAGAAGGCACGUGGGUAAUUAUGAUCACCCCAGCAUUCUCCUACGUUGACCUUAAAGACAAUCUGUUCAACAGAGGAUUGAGCAUCA
B15: 100203277_100203397_2944_CDS_ENSMUSG00000052727_ENSMUST00000064762|mouse|control|control (ssRNA)
RNA: GGGAGUUCUACAGUCCGACGAUCGGCACUCCCGCUCGCAUUGUCUUCCCCGUCCUCUUCCGGUUCCUCAGCCUCCUCAGUUUCCGCCUUCUCUUCGUAGUCUCCGGUCUCUGAGGAUUCUUCAAAACCAGCUCCUUCAUCUUCCAACAGAGGAUUGAGCAUCA
B16: chr4:4691572:4691573:-_ENSMUSG00000066324_ENSMUST00000084949|mus_mus|motif|central (ssRNA)
RNA: GGGAGUUCUACAGUCCGACGAUCAAAGAUUAGGGUUUUUCUACACAGUUUUAAGACAGAGCCAUUCUGCAGGUAUAUCACGGAAAACAUCUUACUUGGACCUAAAAUGAAAACACUACUAAUGUUUCUACACAGCAGUAAUAUCAACAGAGGAUUGAGCAUCA
B17: chr14:62194323:62194324:+_ENSG00000100644_ENST00000337138|hu_hu|FALSE|FALSE (ssRNA)
RNA: GGGAGUUCUACAGUCCGACGAUCUCUUUCAUCACAAUAAGAAAAUUUCAUAUCCAGGCUGUGUCGACUGAGGAAAGUCUUGCUAUCUAAAGGAAUUUCAAUAUUUGAUGGGUGAGGAAUGGGUUCACAAAUCAGCACCAAGCACAACAGAGGAUUGAGCAUCA
B18: chr2:91613138:91613139:+_ENSMUSG00000040506_ENSMUST00000045705|mus_hu|FALSE|FALSE (ssRNA)
RNA: GGGAGUUCUACAGUCCGACGAUCCUGCUGUCUCAGCACAGACAGCAAACUCACCGAAGAGGCACUGGUUCUGGGCGGGGGCAUGGAUUCCGCCUCAGAGCGGGAGUUCAGACUGAGUACUGUCCGGGUCCACUCAGAUCCUGUCAACAGAGGAUUGAGCAUCA
B19: chr1:6251023:6251024:+_ENSMUSG00000025907_ENSMUST00000027040|mus_mus|FALSE|FALSE (ssRNA)
RNA: GGGAGUUCUACAGUCCGACGAUCUUCCGCAACUAAGCUUGAAGAAUCUUCUCUGGCUGACUCAAAGGCAGGAGUUUUGGCUAUUUGAUUCUCAAGAUGUUUAACUUUUUCUAAUAACUCUUUCUCAACAAGUUCUCUCUCCACCAACAGAGGAUUGAGCAUCA
B20: chr7:35674789:35674790:-_ENSG00000122557_ENST00000396081|hu_hu|motif|central (ssRNA)
RNA: GGGAGUUCUACAGUCCGACGAUCUCCAGCUUGGUGUAAAUAAACCAGUAGCAUGGCUCCCAUUACCAUGAUAAACCGACGGAAAGAAGAAUAGAAGUAUACAAUGCUAAGGAGAAUCGCAGCUCGUGAGAACGUGUACAUCCACAACAGAGGAUUGAGCAUCA
B21: chr1:39494564:39494565:+_ENSG00000168653_ENST00000372967|hu_hu|hu_hu_hu_mus_True|18_108 (ssRNA)
RNA: GGGAGUUCUACAGUCCGACGAUCAUGUGCACGUCUCAUCGUUUUGUACCGAAGCAAGCACUCUUCGAAGUCAUCGAACUCUAUCUUGCACUCCUUUUUCGCCCGGGUCCCACCGAUUCCAUGUGCACACUCUAUCCACUCUUUCAACAGAGGAUUGAGCAUCA
B22: chr17:56552419:56552420:-_ENSMUSG00000013236_ENSMUST00000086828|mus_mus|mus_mus_mus_hu_False|68_108 (ssRNA)
RNA: GGGAGUUCUACAGUCCGACGAUCAAAGUUUUUUUCUUUUAAAAAAAAUGAAAUGUCACGGGAUACAAAAAAAUAUAGAGUUUUAAAAGAAAGCUGGAUUCUGGUCCCAGCCCAGUGUCCCCAGGCUGCAGAGCGGGGAGGAGCCAACAGAGGAUUGAGCAUCA

The experiment has as its target T1, UNK ZnF1-3. The experiment is described as follows: nsRBNS (natural sequence RNA bind-n-seq); RBNS binding buffer (assumed for nsRBNS): 25 mM Tris pH 7.5, 150 mM KCl, 3 mM MgCl2, 0.01% Triton X-100, 500 ug/ml BSA, 20 U/ml SUPERase-In, 4 C; UNK is unkempt and MSI1 is Musashi-1; names of the RNAs are library labels; protein concentration not given here; high values mean tight binding.
For the molecule B1, the binding signal was 2.4 enrichment R. For B2 the value was 0.651 enrichment R; for B3, 1.22 enrichment R; for B4, 0.732 enrichment R. Then B5, with 0.65 enrichment R; and B6, with 1.01 enrichment R; and B7, with 1.24 enrichment R. For B8 the value was 0.718 enrichment R; for B9, 1.05 enrichment R; for B10, 0.915 enrichment R. Regarding B11, the binding signal was 0.732 enrichment R. Then B12, with 2.48 enrichment R; and B13, with 1.1 enrichment R. The molecule B14 yielded a binding signal of 1.02 enrichment R. B15: the binding signal turned out to be 0.577 enrichment R. The molecule B16 had a binding signal of 1.01 enrichment R. Then B17, with 1.87 enrichment R. For B18 the value was 0.81 enrichment R; for B19, 1.19 enrichment R; for B20, 1.44 enrichment R. Then B21, with 0.424 enrichment R; and B22, with 2.2 enrichment R.
